According to ChEMBL document CHEMBL1201862, “PubChem BioAssay data set” (2004):
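48-hour exposure; five concentrations; linearly interpolated endpoints. The concentration for 50% growth inhibition is given as GI50.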 Active and inactive are the calls of the source. No stated cut-off is given here; in the data, active = GI50 up to about 1.1 µM and inactive = higher.

What was measured:
Assay in all cases: DTP human tumour cell line panel, 48 h
MDA-N = system: MDA-N
SNB-75 = system: SNB-75
A549 = system: A549
CCRF-CEM = system: CCRF-CEM
HCT-15 = system: HCT-15
KM12 = system: KM12
NCI-H23 = system: NCI-H23
HL-60 = system: HL-60
T47D = system: T47D
SNB-19 = system: SNB-19
COLO 205 = system: COLO 205
RPMI-8226 = system: RPMI-8226
U-251 = system: U-251
SW-620 = system: SW-620
MOLT-4 = system: MOLT-4
OVCAR-5 = system: OVCAR-5
PC-3 = system: PC-3
HCC 2998 = system: HCC 2998
UACC-257 = system: UACC-257
HT-29 = system: HT-29
OVCAR-3 = system: OVCAR-3
A498 = system: A498
MDA-MB-435 = system: MDA-MB-435
Malme-3M = system: Malme-3M
NCI-H226 = system: NCI-H226
SF-268 = system: SF-268
UO-31 = system: UO-31
RXF 393 = system: RXF 393
NCI/ADR-RES = system: NCI/ADR-RES
DU-145 = system: DU-145
NCI-H460 = system: NCI-H460
HOP-62 = system: HOP-62
CAKI-1 = system: CAKI-1
SR = system: SR
SK-OV-3 = system: SK-OV-3
ACHN = system: ACHN
EKVX = system: EKVX
LOX IMVI = system: LOX IMVI
M14 = system: M14
MDA-MB-231 = system: MDA-MB-231
SK-MEL-28 = system: SK-MEL-28
OVCAR-4 = system: OVCAR-4
UACC-62 = system: UACC-62
OVCAR-8 = system: OVCAR-8
TK-10 = system: TK-10
SK-MEL-5 = system: SK-MEL-5
SF-295 = system: SF-295
IGROV-1 = system: IGROV-1
SF-539 = system: SF-539
HCT-116 = system: HCT-116
K562 = system: K562
786-0 = system: 786-0
BT-549 = system: BT-549
SN12C = system: SN12C
MCF7 = system: MCF7
NCI-H522 = system: NCI-H522
SK-MEL-2 = system: SK-MEL-2
Hs-578T = system: Hs-578T

For `COc1cc2c(cc1OC)-c1[nH]c3ccc(C(F)(F)F)cc3c1CC(=O)N2`, the GI50 (MDA-N) was inactive: 3.37 µM, the GI50 (SNB-75) was inactive: 4.81 µM and the GI50 (A549) was inactive: 3.15 µM. For the same molecule, the GI50 (CCRF-CEM) was inactive: 3.23 µM, the GI50 (HCT-15) was 4.02 µM and the GI50 (KM12) was inactive: 3.26 µM. For the same molecule, the GI50 (NCI-H23) was inactive: 6.19 µM, the GI50 (HL-60) was inactive: 2.59 µM and the GI50 (T47D) was inactive: 5.78 µM. For the same molecule, the GI50 (SNB-19) was inactive: 24.7 µM, the GI50 (COLO 205) was inactive: 2.9 µM and the GI50 (RPMI-8226) was inactive: 2.34 µM. The GI50 (U-251) was inactive: 4.59 µM, the GI50 (SW-620) was inactive: 19.8 µM and the GI50 (MOLT-4) was inactive: 2.16 µM. For the same molecule, the GI50 (OVCAR-5) was inactive: 5 µM, the GI50 (PC-3) was inactive: 5.79 µM and the GI50 (HCC 2998) was inactive: 2.39 µM. For the same molecule, the GI50 (UACC-257) was inactive: > 100 µM, the GI50 (HT-29) was inactive: 4.58 µM and the GI50 (OVCAR-3) was inactive: 2.52 µM. The GI50 (A498) was inactive: 3.7 µM, the GI50 (MDA-MB-435) was inactive: 5.7 µM and the GI50 (Malme-3M) was inactive: 13.1 µM. The GI50 (NCI-H226) was inactive: 1.43 µM, the GI50 (SF-268) was inactive: 5.47 µM and the GI50 (UO-31) was inactive: 2.91 µM. The GI50 (RXF 393) was inactive: 1.66 µM, the GI50 (NCI/ADR-RES) was inactive: 5.05 µM and the GI50 (DU-145) was inactive: 4.59 µM. For the same molecule, the GI50 (NCI-H460) was inactive: 4.45 µM, the GI50 (HOP-62) was inactive: 5.56 µM and the GI50 (CAKI-1) was inactive: 2.72 µM. The GI50 (SR) was inactive: 1.82 µM, the GI50 (SK-OV-3) was inactive: 11.1 µM and the GI50 (ACHN) was inactive: 3.44 µM. For the same molecule, the GI50 (EKVX) was inactive: 15.5 µM, the GI50 (LOX IMVI) was inactive: 2.74 µM and the GI50 (M14) was inactive: 8.87 µM. The GI50 (MDA-MB-231) was inactive: 7.91 µM, the GI50 (SK-MEL-28) was inactive: 19.3 µM and the GI50 (OVCAR-4) was inactive: 12.9 µM. The GI50 (UACC-62) was inactive: 15.5 µM, the GI50 (OVCAR-8) was inactive: 4.34 µM and the GI50 (TK-10) was inactive: 23.6 µM. The GI50 (SK-MEL-5) was inactive: 3.63 µM, the GI50 (SF-295) was inactive: 5.21 µM and the GI50 (IGROV-1) was inactive: 3.5 µM. For the same molecule, the GI50 (SF-539) was inactive: 4.05 µM, the GI50 (HCT-116) was inactive: 1.74 µM and the GI50 (K562) was inactive: 2.46 µM. The GI50 (786-0) was inactive: 4.03 µM, the GI50 (BT-549) was inactive: 28.7 µM and the GI50 (SN12C) was inactive: 9.89 µM. For the same molecule, the GI50 (MCF7) was inactive: 5.62 µM, the GI50 (NCI-H522) was inactive: 9.14 µM and the GI50 (SK-MEL-2) was inactive: 5.52 µM. The GI50 (Hs-578T) was inactive: 9.46 µM.
